# Assay results published in paper PMC4336329 (PLoS ONE, 2015).
# About 14,000 (4.5%) of roughly 310,000 compounds showed an effect of 50% or more. Effects have a minus sign here. Some of the results follow.
# Target: human ether-à-go-go-related gene (hERG) potassium channel (human, UniProt Q12809)
# Assay: primary screen, population patch clamp on CHO cells stably expressing hERG
# 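Note: peak tail current of the secondary pulse compared with the same well before compound.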
# human ether-à-go-go-related gene (hERG) potassium channel, sequence (Q12809 whole entry, looked up): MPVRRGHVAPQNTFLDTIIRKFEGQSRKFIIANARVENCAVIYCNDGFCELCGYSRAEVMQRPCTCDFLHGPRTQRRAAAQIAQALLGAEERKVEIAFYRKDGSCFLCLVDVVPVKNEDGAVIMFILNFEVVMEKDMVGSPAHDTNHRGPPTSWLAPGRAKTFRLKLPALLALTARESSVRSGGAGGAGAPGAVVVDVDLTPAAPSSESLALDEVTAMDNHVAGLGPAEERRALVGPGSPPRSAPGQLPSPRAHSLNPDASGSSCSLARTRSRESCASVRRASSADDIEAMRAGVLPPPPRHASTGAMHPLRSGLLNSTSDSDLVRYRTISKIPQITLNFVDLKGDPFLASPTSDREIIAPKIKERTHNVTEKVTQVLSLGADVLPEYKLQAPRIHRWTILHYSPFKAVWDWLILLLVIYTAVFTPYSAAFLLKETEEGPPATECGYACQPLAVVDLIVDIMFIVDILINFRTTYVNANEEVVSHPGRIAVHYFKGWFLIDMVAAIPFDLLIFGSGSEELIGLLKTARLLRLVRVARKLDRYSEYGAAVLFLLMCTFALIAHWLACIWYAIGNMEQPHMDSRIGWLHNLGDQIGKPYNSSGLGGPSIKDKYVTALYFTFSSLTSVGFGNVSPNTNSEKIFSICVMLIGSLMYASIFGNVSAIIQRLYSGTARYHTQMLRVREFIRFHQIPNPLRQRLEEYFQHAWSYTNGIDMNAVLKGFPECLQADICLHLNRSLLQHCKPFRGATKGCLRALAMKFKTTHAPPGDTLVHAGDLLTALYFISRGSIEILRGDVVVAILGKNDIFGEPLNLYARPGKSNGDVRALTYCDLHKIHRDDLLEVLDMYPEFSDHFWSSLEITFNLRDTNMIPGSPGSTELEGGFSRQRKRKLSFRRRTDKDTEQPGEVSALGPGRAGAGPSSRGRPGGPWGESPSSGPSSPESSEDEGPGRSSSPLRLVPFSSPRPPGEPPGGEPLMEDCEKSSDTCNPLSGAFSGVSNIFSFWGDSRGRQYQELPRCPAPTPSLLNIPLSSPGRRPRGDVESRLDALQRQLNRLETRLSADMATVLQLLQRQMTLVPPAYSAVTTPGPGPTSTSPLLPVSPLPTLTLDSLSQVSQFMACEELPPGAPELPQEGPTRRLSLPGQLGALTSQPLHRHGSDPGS
row,Structure (SMILES),"hERG current change (%, negative = inhibition) at 10uM [%]"
1,O=C(C[n+]1ccccc1)N/N=C/c1ccc(O)cc1.[Cl-],21.6
2,O=C(NNC(=O)c1ccccc1Cl)c1cccs1,11.6
3,Cc1cc(C)n(S(=O)(=O)Cc2ccccc2)n1,2.27
4,Cc1csc(NC(=O)c2cc(-c3ccncc3)nc3ccccc23)n1,-13.9
5,COc1ccc(NC(=O)c2cn(CCC#N)nc2-c2ccccc2)cc1,-7.59
6,CC(C)(C)OC(=O)N1CCN(C(=O)c2[nH]cnc2C(=O)N[C@@H](Cc2ccccc2)C(=O)OCc2ccccc2)CC1,-6.94
7,COc1cc(CCC(=O)NCc2ccc(S(N)(=O)=O)cc2)cc(OC)c1OC,21.1
8,O=S(=O)(c1ccccc1F)N1CCN(CCc2ccccc2)CC1,-5.81
9,CC(=O)c1ccc(NC(=O)c2ccc3c(=O)n4c(nc3c2)CCCCC4)cc1,-5.23
10,Cc1nc(CN2CCC(c3ccccc3)CC2)cc(=O)[nH]1,19.5
11,CCOC(=O)N1CCC(N(CCN(C)C)C(=S)Nc2ccccc2C)CC1,3.33
12,CCOC(=O)c1c(C)nc2sc3c(=O)n(-c4ccc(OC)cc4)cnc3c2c1-c1ccc(OC)cc1,5.33
13,O=C(CSc1nc2ccccc2[nH]1)N1CCN(c2ccccc2)CC1,-0.235
14,CCOP(=O)(OCC)c1nc(Cc2ccccc2)oc1NCc1ccccc1,2.15
15,O=C(NCCc1ccccc1)C(=O)N/N=C/c1ccccc1C(F)(F)F,6.29
16,Cc1cccc(CSc2nnc3c(n2)[nH]c2ccccc23)c1,13.6
17,C/C=C/CC1(CC)C(=O)NC(=S)NC1=O,25.1
18,CCOC(=O)c1ccc(NC(=O)Nc2ccc(OC)c(OC)c2)cc1,1.51
19,CC(C)[C@H](NC(=O)OCc1ccccc1)C(=O)NCc1ccccc1,3.55
20,O=C(NCCO)C(c1ccccc1)c1ccccc1,-5.02
21,Cc1ccc(C)c(NC(=O)c2cc([N+](=O)[O-])cc([N+](=O)[O-])c2)c1,9.62
22,CC(=O)OCC1=C(C(=O)O)N2C(=O)C(NC(=O)C(C)Cn3cc(Cl)cn3)C2SC1 (stereo not shown),23.1
23,COCCNC(=O)c1ccc(N2CC3CC(C2)c2cccc(=O)n2C3)c(NC(=O)c2c(F)cccc2F)c1 (stereo not shown),7
24,COc1cccc(NC(=O)N2CCCC(C(=O)Nc3ccccc3OC)C2)c1 (stereo not shown),-28
25,COc1ccc(CCC(C(O)C(F)(F)F)S(=O)c2ccccc2)cc1 (stereo not shown),4.1
26,Cc1ccc(C(=O)Nc2ccccc2N2CCCCC2)o1,2.4
27,CC1Cc2ccccc2N1C(=O)CSc1nc2c(c(=O)n(C)c(=O)n2C)n1Cc1ccc(F)cc1 (stereo not shown),-3.14
28,COc1ccc(/C=C/C(=O)Nc2cc(C(F)(F)F)ccc2Cl)cc1,6.51

row,Structure (SMILES),"hERG current change (%, negative = inhibition) at 10uM [%]"
1,Cc1cccc(NS(=O)(=O)c2ccc(C(=O)NCC(c3ccco3)N3CCCCC3)cc2)c1C (stereo not shown),-55.6
2,Cc1noc(C)c1COc1ccc(C(=O)OCC(=O)NC2CCCCC2C)cc1 (stereo not shown),-1.57
3,O=[N+]([O-])c1ccccc1-c1ccc(CN2CCN(c3ccccc3)CC2)o1,-9.96
4,Cc1nc2cc(N3CCN(C)CC3)c(NC(=O)Cc3ccccc3)cc2c(=O)n1Cc1ccccc1,-7.09
5,Cn1c(C(=O)N2CCN(C(=O)c3ccco3)CC2)cc2c(=O)n3ccccc3nc21,-14.5
6,O=C(OCC(=O)N1CCc2ccccc21)c1cccc(S(=O)(=O)N2CCCc3ccccc32)c1,4.13
7,CCN(CCCNC(=O)C1CCC(=O)N1C1CCCC1)c1cccc(C)c1 (stereo not shown),-2.31
8,C=CCn1c(=O)n(CCC#N)c(=O)n(CCC#N)c1=O,11.8
9,Cc1cc(S(=O)(=O)N2CCCC2)ccc1OCC(=O)Nc1ccccc1,21.2
10,CCCCCn1c(=O)c(C(=O)Nc2cc(C)ccn2)c(O)c2ccccc21,17.2
11,Cc1ccccc1OCC(=O)NN1CCN(C)CC1.Cl,1.07
12,Cc1ccc(-c2noc(CNS(=O)(=O)c3ccccc3)n2)cc1,13.8
13,CC/C(=N\NC(=O)C1CCCC1)c1cccc(Br)c1,13.2
14,CC1C(=O)Nc2ccccc2N1C(=O)c1ccc(Cl)cc1 (stereo not shown),11.4
15,O=C(/C=C/c1ccc(Cl)cc1)NC(=S)NN1CCCCC1c1cccnc1 (stereo not shown),-67
16,COc1ccccc1CN1CCNC(=O)C1CC(=O)N(C)Cc1ccon1 (stereo not shown),5.2
17,CCCC1=C(C(=O)OCC)C(c2cc(Cl)cc(OC)c2OCc2ccccc2)NC(=O)N1 (stereo not shown),4.73
18,CCC(=O)Nc1cccc(NC(=O)c2cc3ccccc3o2)c1,-8.5
19,COc1cccc(OCCCn2cc(/C=C3/C(=N)N4C=C(C)SC4=NC3=O)c3ccccc32)c1,16.7
20,Cc1cccc(CC(=O)Nc2cccnc2)c1,7.08
21,O=C(Cn1c(=O)oc2cc(S(=O)(=O)N3CCCC3)ccc21)N1CCc2ccccc2C1,-32.3
22,O=C(Nc1nc(-c2ccccc2)cs1)c1ccc2c(=O)n3c(nc2c1)CCCCC3,-23.8
23,CCOc1cccc2cc(C(=O)NCc3ccc(F)cc3)c(=N)oc12,6.99
24,Cc1cc(Cl)ccc1NC(=O)NC1CCN(S(=O)(=O)c2ccc(F)cc2)CC1,-5.62
25,O=C(O)c1ccc(N=Nc2c(-c3ccccc3)[nH]oc2=O)cc1,31.9
26,Cc1cc(C)c(S(=O)(=O)N2CCN(C(=O)C(C)Cn3nc(C)nc3C)CC2)c(C)c1 (stereo not shown),8.39
27,CCOC(=O)c1ccccc1NC(=O)C1CC(=O)N(c2ccccc2)C1 (stereo not shown),-3.37
